Experimental data published in the supplement of paper PMC7238544.
Counter-ions that a name gives are not always drawn. ± gives the standard deviation of the averaged measurements. The list shows a part of the results. *1 amine or outer side, *2 acyl side, *3 side chain or, on linkers, in order; H or OH if unused. Where a SMILES comes first, the peptide text is derived from it. Bridges are numbered along the chain shown (N, C = ends). Roman numbers before positions name the chains, in order. [ ]: non-standard residue; d: D form. Actinocin(9to1) = Cc1c2oc3c(C)ccc(C(=O)[*:1])c3nc-2c(C(=O)[*:2])c(N)c1=O; NMeV = CN[C@H](C(=O)O)C(C)C; Sar = CNCC(=O)O

Assays:
Settings in all cases: priming compound concentration 100 µM
hAMSC donor 1 [1] = experiment: Hoechst total cell count ratio vs vehicle control; higher = more cells (less toxicity)
hAMSC donor 2 [2] = experiment: as above
hAMSC donor 1 [3] = experiment: transgenic luciferase activity (RLU/mg protein) fold change vs vehicle control (ratio); higher = more transgene expression
hAMSC donor 2 [4] = experiment: as above
hAMSC donor 1 [5] = experiment: transfection efficiency (EGFP+ cells / Hoechst count) fold change vs vehicle control (ratio); hAMSC are human adipose-derived mesenchymal stem cells given an EGFP-luciferase plasmid by lipofection; higher = enhanced transfection
hAMSC donor 2 [6] = experiment: as above
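For Hoechst total cell count ratio vs vehicle control in this document: compound added 30 min before Lipofectamine 3000 lipoplex delivery, triplicate-well means expressed against DMSO vehicle control wells of the same 96-well plate.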
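For transfection efficiency (EGFP+ cells / Hoechst count) fold change vs vehicle control in this document: compounds added 30 min before Lipofectamine 3000 lipoplex transfection, triplicate means relative to DMSO vehicle wells on the same plate, luciferase RLU normalized to BCA total protein.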
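For transgenic luciferase activity (RLU/mg protein) fold change vs vehicle control in this document: compounds in DMSO added 30 min before Lipofectamine 3000 transfection of pEGFP-Luc in 96-well plates, values are means of triplicate wells over DMSO vehicle wells on the same plate.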

Structure (SMILES) | Hoechst total cell count ratio (hAMSC donor 1 [1]) | Hoechst total cell count ratio (hAMSC donor 2 [2]) | transgenic luciferase activity (hAMSC donor 1 [3]) | transgenic luciferase activity (hAMSC donor 2 [4]) | transfection efficiency (hAMSC donor 1 [5]) | transfection efficiency (hAMSC donor 2 [6])
CC(COc1ccccc1)N(CCCl)Cc1ccccc1 (stereo unspecified) [Phenoxybenzamine hydrochloride] | 1.51 ± 0.057 | 0.988 ± 0.063 | 2.31 ± 0.44 | 1.09 ± 0.16 | 0.818 ± 0.2 | 1.56 ± 0.25
Cc1cccc(C)c1NC(=O)C(C)N (stereo unspecified) [Tocainide] | 1.38 ± 0.14 | 0.862 ± 0.43 | 1 ± 0.2 | 0.718 ± 0.09 | 0.994 ± 0.16 | 1.33 ± 0.33
Cc1sc(N)c(C(=O)c2cccc(C(F)(F)F)c2)c1C | 1.7 ± 0.061 | 1.44 ± 0.057 | 0.182 ± 0.094 | 0.486 ± 0.13 | 0.422 ± 0.12 | 0.431 ± 0.056
CN1CCN(c2c(F)cc3c(=O)c(C(=O)O)cn4c3c2SCC4)CC1 [Rufloxacin hydrochloride] | 1.09 ± 0.12 | 0.839 ± 0.18 | 1.64 ± 1.2 | 0.329 ± 0.089 | 1.04 ± 0.32 | 1.74 ± 0.56
COc1ccccc1OCCNCC(O)COc1cccc2[nH]c3ccccc3c12 (stereo unspecified) [Carvedilol] | 0.688 ± 0.025 | 0.284 ± 0.022 | 13.5 ± 2.2 | 4.18 ± 0.82 | 2.46 ± 0.4 | 2.78 ± 0.53
CCc1c(C)[nH]c2c1C(=O)C(CN1CCOCC1)CC2 (stereo unspecified) [Molindone hydrochloride] | 1.48 ± 0.054 | 1.08 ± 0.12 | 1.32 ± 0.68 | 0.756 ± 0.26 | 1.33 ± 0.16 | 1.42 ± 0.2
OC(c1cc(C(F)(F)F)nc2c(C(F)(F)F)cccc12)C1CCCCN1 (stereo unspecified) [Mefloquine hydrochloride] | 0.126 ± 0.022 | 0.0487 ± 0.006 | 0.00571 ± 0.0014 | 0.000141 ± 4.3e-05 | 0.157 ± 0.026 | 0.123 ± 0.21
CC#C[C@]1(O)CC[C@H]2[C@@H]3CCC4=CC(=O)CCC4=C3[C@@H](c3ccc(N(C)C)cc3)C[C@@]21C | 0.828 ± 0.07 | 1.1 ± 0.23 | 1.83 ± 0.2 | 0.964 ± 0.48 | 1 ± 0.2 | 0.888 ± 0.17
Fc1ccc([C@@H]2CCNC[C@H]2COc2ccc3c(c2)OCO3)cc1 [Paroxetine maleate] | 0.23 ± 0.081 | 0.053 ± 0.032 | 0.00542 ± 0.0058 | 0.00033 ± 4.1e-05 | 0.516 ± 0.042 | 0.698 ± 0.78
CCC(=O)O[C@]1(C(=O)CCl)[C@@H](C)C[C@H]2[C@@H]3CCC4=CC(=O)C=C[C@]4(C)[C@@]3(F)[C@@H](O)C[C@@]21C [Clobetasol propionate] | 1.19 ± 0.21 | 1.15 ± 0.098 | 4.2 ± 2 | 0.783 ± 0.14 | 0.966 ± 0.2 | 1.17 ± 0.15
CC(N)C12CC3CC(CC(C3)C1)C2 (stereo unspecified) [Flumadine hydrochloride] | 0.875 ± 0.085 | 1.33 ± 0.058 | 0.87 ± 0.22 | 2.28 ± 0.28 | 1.3 ± 0.66 | 1.49 ± 0.22
CC(C)NCC(O)c1ccc(O)c(O)c1 (stereo unspecified) [Isoproterenol hydrochloride] | 1.21 ± 0.19 | 1.26 ± 0.11 | 0.539 ± 0.32 | 0.793 ± 0.16 | 1.23 ± 0.25 | 1.04 ± 0.25
CC(N/C(=N\C#N)Nc1ccncc1)C(C)(C)C (stereo unspecified) [Pinacidil monohydrate] | 1.05 ± 0.023 | 1.3 ± 0.44 | 1.37 ± 0.098 | 1.07 ± 0.23 | 1.14 ± 0.32 | 0.947 ± 0.12
O=C(O)CCCc1ccccc1 [4-Phenylbutyric acid] | 1.2 ± 0.08 | 0.813 ± 0.059 | 0.558 ± 0.32 | 1.1 ± 0.47 | 0.987 ± 0.097 | 1 ± 0.098
C[C@@H]1O[C@@H](OC[C@H]2O[C@@H](Oc3c(-c4ccc(O)c(O)c4)oc4cc(O)cc(O)c4c3=O)[C@H](O)[C@@H](O)[C@@H]2O)[C@H](O)[C@H](O)[C@H]1O [Rutin] | 1.21 ± 0.14 | 0.821 ± 0.34 | 1.19 ± 0.52 | 0.268 ± 0.052 | 1.48 ± 0.69 | 0.5 ± 0.15
CC(=O)Oc1ccccc1C(=O)Nc1ncc([N+](=O)[O-])s1 [Nitazoxanide] | 1.23 ± 0.044 | 1.96 ± 0.066 | 1.07 ± 0.6 | 1.77 ± 0.52 | 1.09 ± 0.27 | 0.374 ± 0.05
Cc1ncc([N+](=O)[O-])n1CC(C)O (stereo unspecified) [Secnidazole] | 1.22 ± 0.083 | 1.48 ± 0.3 | 0.895 ± 0.22 | 0.402 ± 0.064 | 0.706 ± 0.13 | 0.946 ± 0.074
CN(C)CCc1c[nH]c2ccc(Cn3cncn3)cc12 [Rizatriptan benzoate] | 1.02 ± 0.11 | 1.39 ± 0.31 | 1.44 ± 0.44 | 0.716 ± 0.26 | 0.987 ± 0.38 | 0.862 ± 0.18

Structure (SMILES) | Hoechst total cell count ratio (hAMSC donor 1 [1]) | Hoechst total cell count ratio (hAMSC donor 2 [2]) | transgenic luciferase activity (hAMSC donor 1 [3]) | transgenic luciferase activity (hAMSC donor 2 [4]) | transfection efficiency (hAMSC donor 1 [5]) | transfection efficiency (hAMSC donor 2 [6])
O=C1CC2(CCCC2)CC(=O)N1CCNCC1COc2ccccc2O1 (stereo unspecified) | 1.62 ± 0.22 | 1.34 ± 0.3 | 0.396 ± 0.2 | 0.294 ± 0.06 | 0.932 ± 0.11 | 1.07 ± 0.35
O=C(O)COCCN1CCN(C(c2ccccc2)c2ccc(Cl)cc2)CC1 (stereo unspecified) [Cetirizine] | 1.14 ± 0.13 | 1.38 ± 0.19 | 0.261 ± 0.23 | 0.767 ± 0.066 | 1.22 ± 0.16 | 0.81 ± 0.058
CC1CCN(CCCC(=O)c2ccc(F)cc2)CC1 [Methylperone hydrochloride] | 1.22 ± 0.12 | 1.13 ± 0.15 | 0.874 ± 0.21 | 0.814 ± 0.21 | 1.15 ± 0.19 | 0.846 ± 0.23
CN1C(=O)CC[C@H]1c1cccnc1 [(-)-Cotinine] | 1.32 ± 0.039 | 1.43 ± 0.19 | 0.961 ± 0.28 | 1.61 ± 0.28 | 0.948 ± 0.24 | 0.925 ± 0.28
CCN(CC)CCNC(=O)c1ccc(N)cc1 [Procainamide hydrochloride] | 2.1 ± 0.1 | 1.38 ± 0.23 | 2.48 ± 1 | 0.389 ± 0.094 | 1.63 ± 0.11 | 1.24 ± 0.14
Clc1ccc2c(c1)CCc1cccnc1C2=C1CCNCC1 [Desloratadine] | 0.141 ± 0.018 | 0.0413 ± 0.028 | 0.00598 ± 0.0076 | 0.0471 ± 0.05 | 0.816 ± 0.33 | 0.47 ± 0.81
CC1(C)O[C@@H]2C[C@H]3[C@@H]4C[C@H](F)C5=CC(=O)C=C[C@]5(C)[C@@]4(F)[C@@H](O)C[C@]3(C)[C@]2(C(=O)CO)O1 [Fluocinolone acetonide] | 0.959 ± 0.064 | 1.08 ± 0.11 | 7.86 ± 4.2 | 2.96 ± 0.24 | 2.75 ± 0.91 | 2.52 ± 0.56
C/C=C1\[C@H]2C=C(C)C[C@]1(N)c1ccc(=O)[nH]c1C2 [Huperzine A] | 2.19 ± 0.074 | 1.01 ± 0.021 | 1.07 ± 0.31 | 1.37 ± 0.17 | 0.761 ± 0.13 | 0.759 ± 0.13
CC(C)NCC(O)COc1ccc(CC(N)=O)cc1 (stereo unspecified) [Atenolol] | 1.14 ± 0.047 | 1.22 ± 0.048 | 3.08 ± 1.8 | 1.39 ± 0.32 | 1.44 ± 0.5 | 1.1 ± 0.1
C#C[C@]1(O)CC[C@H]2[C@@H]3CCc4cc(OC)ccc4[C@H]3CC[C@@]21C [Mestranol] | 1.21 ± 0.12 | 0.982 ± 0.026 | 1.2 ± 0.13 | 2.26 ± 0.88 | 0.678 ± 0.19 | 1.29 ± 0.19
Cn1nnc2c(C(N)=O)ncn2c1=O [Temozolomide] | 1.54 ± 0.12 | 1.19 ± 0.057 | 0.3 ± 0.17 | 0.807 ± 0.27 | 0.671 ± 0.3 | 0.977 ± 0.11
Nc1nc(F)nc2c1ncn2[C@@H]1O[C@H](CO)[C@@H](O)[C@@H]1O [Fludarabine] | 1.35 ± 0.066 | 1.19 ± 0.23 | 1.65 ± 0.42 | 0.758 ± 0.11 | 0.808 ± 0.091 | 1.26 ± 0.19
N[C@@H](C(=O)N[C@@H]1C(=O)N2C(C(=O)O)=C(Cl)CS[C@H]12)c1ccccc1 [Cefaclor] | 1.27 ± 0.29 | 1.51 ± 0.33 | 1.08 ± 0.35 | 0.531 ± 0.13 | 0.727 ± 0.14 | 0.82 ± 0.085
C[C@]12C[C@H](O)[C@H]3[C@@H](CCC4=CC(=O)CC[C@@]43C)[C@@H]1CC[C@@H]2C(=O)CO [Corticosterone] | 1.36 ± 0.021 | 0.883 ± 0.12 | 2.78 ± 0.19 | 1.13 ± 0.55 | 1.25 ± 0.26 | 1.53 ± 0.13
CC(C)[N+]1(C)[C@@H]2CC[C@H]1C[C@@H](OC(=O)C(CO)c1ccccc1)C2 (stereo partly specified) [Ipratropium bromide] | 0.883 ± 0.24 | 0.942 ± 0.34 | 1.31 ± 0.47 | 0.812 ± 0.36 | 2.43 ± 0.25 | 1.13 ± 0.2
C[C@H]1COc2c(N3CCN(C)CC3)c(F)cc3c(=O)c(C(=O)O)cn1c23 [Levofloxacin] | 1.14 ± 0.13 | 1.37 ± 0.23 | 0.823 ± 0.15 | 0.854 ± 0.055 | 0.712 ± 0.11 | 0.906 ± 0.14
Cc1c2oc3c(C)ccc(C(=O)N[C@@H]4C(=O)N[C@H](C(C)C)C(=O)N5CCC[C@H]5C(=O)N(C)CC(=O)N(C)[C@@H](C(C)C)C(=O)O[C@@H]4C)c3nc-2c(C(=O)N[C@@H]2C(=O)N[C@H](C(C)C)C(=O)N3CCC[C@H]3C(=O)N(C)CC(=O)N(C)[C@@H](C(C)C)C(=O)O[C@@H]2C)c(N)c1=O [Dactinomycin] (I: T[dV]P[Sar][NMeV] / II: T[dV]P[Sar][NMeV]; ester I:1-I:C, II:1-II:C; linker I:N-II:N via Actinocin(9to1)) | 0.466 ± 0.1 | 0.075 ± 0.029 | 0.00194 ± 0.00037 | 0.000235 ± 9.2e-05 | 0.0876 ± 0.076 | 0
CC(C)(C)NC[C@H](O)COc1nsnc1N1CCOCC1 [S(-)-Timolol maleate] | 1.46 ± 0.062 | 1.31 ± 0.13 | 0.825 ± 0.13 | 1.17 ± 0.33 | 1.12 ± 0.18 | 1.03 ± 0.2
